According to patent US6034212, “SH3 kinase domain associated protein, a signalling domain therein, nucleic acids encoding the protein and the domain, and diagnostic and therapeutic uses thereof” (The Rockefeller University, dated 2000):

Molecular target: TrpE alone (Escherichia coli (strain K12), UniProt P00895)
Experiment: Western ligand blot with 35S-methionine labeled GST-YES-SH3
Protocol: FIG. 5. Binding between YAP65 and Yes in vitro. (A) TrpE-YAP65 fusion protein (2,4,5,6,7) or TrpE alone (1,3) were probed on Western blots with ^35S-methionine labeled GST-Yes-SH3 alone (2) or with radioactive GST-Yes-SH3 supplemented with 10 µM of cold GST-Yes-SH3 (4); Lane 5 is as in lane 2 but the incubation was in the presence of SPLAP peptide (200 µM); lanes 6 and 7, the binding was competed with 50 µM and 200 µM of the PLAP peptide, respectively. The arrow indicates partially purified TrpE-YAP65 fusion protein. Lower migrating protein bands represent products of proteolytic degradation. Even if an increased concentration of protease inhibitors and careful purification protocols were used, we always observed limited degradation of the TrpE-YAP65 protein. Equal amounts (8 µg) of TrpE-fusion protein or TrpE protein were loaded into each lane of the SDS-polyacrylamide gel and transferred to nitrocellulose. (B) Differential binding of ^35S-labeled TrpE-YAP65 fusion protein to various fusion proteins containing SH3 domains. Before the Western transfer, we had loaded equal amounts (1 µg) of purified proteins into each lane of the SDS gel. An SDS-polyacrylamide gel was run in parallel and stained with Coomassie Blue to confirm equal concentrations of the purified proteins. […]

binding result: no binding
B1: GST-SH3-Yes fusion protein (other)
chain: GGVTVFVALYDYEARTTDDLSFKKGERFQIINNTEGDWWEARSIATGKTGYIPSNYVAPADS
modifications: 35S-methionine labeled when used as probe
